Results from PubChem BioAssay AID1508624 (National Center for Advancing Translational Sciences (NCATS), 2021).
The campaign covered roughly 48,000 compounds. About 120 (0.25%) were called active. Inconclusive results (about 4%) are left out. The call rests on the fitted dose curve; in most records, active means well fitted activation curve with a large enough effect; inconclusive means small, poorly fitted or top-dose-only effect, or another doubt; inactive means no such curve, though single readings can be large or run the other way. The list shows a part of the results.

Assay: Primary qHTS for Identification of Small Molecule Activators of Huntingtin-Antisense Promoter Activity; further: nearly all actives have a fitted effect of over 55% in size
Conditions: HEK293 HTT-AS promoter firefly luciferase reporter, 24 h; series mostly up to 57.5 µM; activity change, positive = activation: at the top concentration
How it was run: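 Firefly luciferase readout (Dual-Glo, 10 min RT) after 24 h, 37 °C compound exposure (final up to 57.5 uM) of HEK293 reporter cells cultured 24 h beforehand; PTC124 at 50 uM final as control inhibitor; activity scaled vehicle 0%, zero RLU -100%.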

Activity change, positive = activation, inactive:
Cc1ccc(NC(=O)Cn2ncn3c(cc4ccccc43)c2=O)cc1F -14.9%, Cc1nc2sccn2c(=O)c1S(=O)(=O)Nc1ccc(N2CCOCC2)c(Cl)c1 -27.4%, COC(=O)c1c(SCC(=O)Nc2cc(OC)cc(OC)c2)[nH]c2ccc(C)cc2c1=O -6.48%, O=C(CCC(=O)N1CC2CCCN2c2ccccc21)NCc1ccc(Cl)cc1 (stereo unspecified) -26.8%, CCC1CCC(C(=O)NC(C(=O)Nc2cccc(OC)c2)C(C)C)CC1 (stereo unspecified) 0.288%, CCOc1ccc(CNCc2c(C(=O)O)c(C)n(Cc3cccc(OC)c3)c2C)cc1OC -19.4%, Cc1cc(CN2CCN(c3ccccc3F)CC2)cs1 -0.112%, Cc1nc2nc(CNC(=O)OC(C)(C)C)nn2c(C)c1CCC(=O)NCc1ccc(F)cc1 -10.1%, CCc1ccc(C(=O)c2cn(CC(=O)Nc3ccc4c(c3)OCO4)c3ccc(OC)cc3c2=O)cc1 -23.7%, Cn1c(C(=O)Nc2cccc(C(F)(F)F)c2)cc2c(=O)n3ccccc3nc21 -12.9%, CCOc1ccc(NC(=O)C2CCC(CNS(=O)(=O)c3ccc(Br)s3)CC2)cc1 (stereo unspecified) -18.3%, COc1ccc(OC)c(CNC(=O)C(C)n2c(C)c3cnn(-c4ccccc4)c(=O)c3c2C)c1 (stereo unspecified) -21%, CC1=C(c2ccc(C)c(C)c2)S(=O)(=O)N=C1N1CCC(C(=O)N2CCC(C)CC2)CC1 -11%, CCOc1cc(/C=C(\C#N)C(=O)NCC2CCCO2)ccc1O (stereo unspecified) 3.86%, Cc1ccccc1OCc1ccc(-c2nc(C#N)c(NCc3cccnc3)o2)o1 -30.3%, Cc1ccccc1CNC(=O)CCCn1c(=O)c2cccn2c2cccnc21 -6.06%, Cc1ccc(N2CC(NC(=O)c3cccs3)CC2=O)cc1C (stereo unspecified) -14%, COc1cc(NC(=O)c2cccc3c2C(=O)N(C2CCCCC2)C3)cc(OC)c1OC -29.6%, Fc1ccc([C@@H]2CCNC[C@H]2COc2ccc3c(c2)OCO3)cc1, Oc1ccccc1-c1nc(/C=C/c2ccccc2Cl)nn1-c1ccccc1 6.11%, CCOC(=O)c1c(-c2ccc(C)cc2)csc1NC(=O)c1cc(=O)c2ccc(C)cc2o1 1.09% [at 11.5 µM, percent change from vehicle, -100% = no light], CSc1cccc(Nc2cc(C(=O)NCCCN(C)c3ccccc3)c3ccccc3n2)c1 -32%, COc1ccc(NC(=O)Cn2c(=O)n(Cc3nc(-c4ccccc4)no3)c(=O)c3ccccc32)cc1Cl -35.5%, COc1ccc(/C=C/C(=O)Nc2nc3n(n2)C(c2ccc(F)cc2)C=C(c2ccccc2)N3)cc1 (stereo unspecified) -25.8%, COc1cc(C(=O)n2nc(C)c(Sc3ccc(Cl)cc3)c2C)cc(OC)c1OC -17.1%, CCCCCCCCCCC(CO)CCCCCCCC (stereo unspecified) -0.279%, NC(CO)C(=O)NNCc1ccc(O)c(O)c1O (stereo unspecified), COc1ccc(NC(=O)C2CCCN(S(=O)(=O)c3ccc(Br)s3)C2)cc1 (stereo unspecified) -25.4%, CC(=O)N1CCc2cc(S(=O)(=O)NC(C(=O)Nc3ccc(C)cc3C)C(C)C)ccc21 (stereo unspecified) -22.6%, CCOc1ccc(C(=O)c2oc3ccccc3c2NC(=O)Cc2coc3ccc(CC)cc23)cc1 -4.99%, O=C(Cc1ccc(F)cc1)Nc1nnc2n1CCS2 -9.03%, Cc1cccc(NC(=O)N2CCC3(CC2)Oc2ccccc2C(=O)N3Cc2ccccc2F)c1C -6.99%, COc1cccc(C(=O)Nc2c(C(=O)N3CCN(c4ccc(F)cc4)CC3)oc3ccccc23)c1 -26%, CCc1ccc(CNC(=O)c2c(C)oc3ncnc(N4CCOCC4)c23)cc1 -30%, CN(C)CCCN1c2ccccc2CCc2ccccc21 -21.3%, C[C@H]1COc2c(N3CCN(C)CC3)c(F)cc3c(=O)c(C(=O)O)cn1c23 -1.43%, CCc1cccc(-n2c(=O)c3cccnc3n2CC(=O)Nc2ccc(F)c(C)c2)c1 -18.1%, CCc1ccc2occ(CC(=O)Nc3ccccc3C(F)(F)F)c2c1 -16.3%, CC(C)c1ccc(Nc2cc(C(=O)NC3CCCCC3)c3ccccc3n2)cc1 -5.7%, Cc1cccc(N2CCN(CCNC(=O)Nc3ccc(Cl)cc3)CC2)c1C -55.2%, COc1ccccc1NC(=O)CSc1nc(-c2ccc(C(C)(C)C)cc2)c(C#N)c(=O)[nH]1 -10.6%, CCOc1ccccc1-n1nnc(-c2nsc(NC(=O)c3ccc(C)cc3)n2)c1C -38.6%, CCc1ccccc1OCC(=O)Nc1ccc(S(=O)(=O)Nc2nc(C)cc(C)n2)cc1 -10.1%, CCCN(C(=O)c1cc2c(=O)[nH]c3ccc(C)cc3c2s1)c1ccc(CC)cc1 -9.82%, CCCC(=O)OCOC(=O)C1=C(C)NC(C)=C(C(=O)OC)C1c1cccc(Cl)c1Cl (stereo unspecified) -5.83%, CCOc1ccc(CNS(=O)(=O)c2ccc3c(c2)CCCN3C(C)=O)cc1OC -30.6%, CCOC(=O)C1CCCN(C(=O)c2nn(-c3ccc(C)cc3)c(=O)n(C)c2=O)C1 (stereo unspecified) -5.17%, CCc1nnc2c(N3CCN(c4cc(Cl)ccc4C)CC3)nc3ccccc3n12 2.71%, COc1ccc(C2=NC(c3ccncc3)=Nc3ccc(OC)cc3N2)cc1 4.27%, COc1ccc(-c2noc(N3CCC(C(=O)N4CCN(c5cccc(C)c5C)CC4)CC3)n2)cc1 -18.1%, COc1ccc(C2=C(C)C(=O)N(Cc3ccc(C(=O)NCc4cccc(C)c4)cc3)S2(=O)=O)cc1 -35.8%, COc1ccc2c(c1)c(N1CCCC1=O)c(C(=O)Nc1ccccc1C(F)(F)F)n2C -2.97%, CCOc1ccc(NC(=O)CCNS(=O)(=O)c2cccc3nonc23)cc1 -2.2%, COc1ccc(-c2noc(COc3cc(C)ccc3C)n2)cc1OC -8.44%, O=C(COc1ccc(F)cc1)Nc1ccc2nc(SCC(=O)N3CCOCC3)sc2c1 -36.1%, CC(C)c1ccc(N2C(=O)CSC23C(=O)N(C)c2ccccc23)cc1 (stereo unspecified) -11%, O=C1[C@@H]2CSC(c3ccc(Cl)cc3)N2C(=O)N1c1ccccc1 (stereo partly specified) -22%, CCOC(=O)c1c(NC(=O)c2cc(-c3cccc(OC)c3)on2)sc2c1CCCC2 -3.51%, COc1cccc(CNC(=O)Cc2c(C(=O)O)c(C)cn2C)c1 -2.3%, COc1ccc(CC(=O)NCC(c2cccs2)S(=O)(=O)c2ccc(C)cc2)cc1 (stereo unspecified) -16.5%, CCc1ccc(NC(=O)Cn2c(=O)n(Cc3ccco3)c(=O)c3oc4ccccc4c32)cc1 -6.22%, CC(C)c1ccc(NC(=O)CN2C(=O)COc3ccc(S(=O)(=O)N4CCCCCC4)cc32)cc1 -26%, O=C(NCc1cccs1)c1ccc(CSc2nc3cccnc3n2Cc2ccccc2F)cc1 -19.3%, Cc1oc(-c2ccccc2Cl)nc1CSc1nc2ncccc2[nH]1 -6.55%, O=C(NCc1cccc(Cl)c1)c1ccc2nc(N3CCCCC3)sc2c1 -38%, CCOC(=O)c1c(C)n(-c2ccccc2)c2ccc(OC(=O)c3cccc(OC)c3OC)cc12 -25.9%, CCN(CC)C(=O)c1ccc(Nc2nnc(-c3ccc(C)c(S(=O)(=O)NC)c3)c3ccccc23)cc1 -44.6%, CCc1cccc(N2C(=O)CSC23C(=O)Nc2ccccc23)c1 (stereo unspecified) -11.6%, COc1ccc(S(=O)(=O)Nc2c(C)nc3nc(C)[nH]n3c2=O)cc1 -15.7%, CCOc1ccccc1CNC(=O)c1c(C)oc2ncnc(N3CCOCC3)c12 -7.16%, CCOc1ccc(NC(=O)CSc2ccc(-c3sc(-c4ccccc4)nc3C)nn2)cc1 6.56%, CCOC(=O)c1oc2ccc(S(=O)(=O)n3nc(-c4cc(OC)c(OC)c(OC)c4)cc3N)cc2c1C -20.4%, CCOC(=O)CNC(=O)Nc1cc(C(=O)NCc2ccccc2OC)ccc1N1CCCC1 12.1%, Cc1ccccc1C(=O)NC1(C(F)(F)F)N=C(c2ccccc2)N(C2CCCCC2)C1=O (stereo unspecified) -16.1%, CC(C)C(=O)Nc1ccccc1OCc1cc(=O)n2ccccc2n1 -11.8%, CCC(Oc1ccccc1F)C(=O)N1CCC(c2nc3ccccc3s2)CC1 (stereo unspecified) -24.8%, CCOc1ccc(NC(=O)C2CCCN(c3ccc(Sc4ccc(C)cc4)nn3)C2)cc1 (stereo unspecified) -1.76%, COC(=O)C(CCSC)NC(=O)c1cc2c(n(-c3ccc(Cl)cc3)c1=O)CCCC2=O (stereo unspecified) -7.82%, O=C(NC(=O)c1ccccc1)Nc1ccc(-c2cc(C(F)(F)F)nn2-c2ccccc2)cc1 -5.18%, COc1ccc(Cl)cc1NC(=O)C1CCCN(c2ncnc3onc(C)c23)C1 (stereo unspecified) -24.7%, COc1ccccc1CCNC(=O)C1CCN(c2nnc(-n3cccc3CNc3ccc(C)cc3)s2)CC1 -22.7%, COc1ccc(Cl)cc1NC(=O)c1cn(C2CCCCC2)c(=O)c2c1c1ccccc1n2C -7.31%, Cc1c(C(=O)N(Cc2ccc(N(C)C)cc2)CC2CCCO2)oc2ccc(Cl)cc12 (stereo unspecified) -14%, CCOc1ccc(Nc2nc3cc(Cl)c(Cl)cc3nc2-n2nc(C)cc2C)cc1 -5.37%, COc1ccc(N2CCN(c3csc4ccc(Cl)cc4c3=O)CC2)cc1 5.61%, COc1ccc(CNC(=O)c2cc(-c3ccc(C)cc3)nc3n[nH]c(-c4ccc(Br)cc4)c23)cc1 11.8%, Cc1ccc(C)c(S(=O)(=O)c2nnn3c2nc(NC(C)C)c2sccc23)c1 -49.4%, O=C(O)c1ccc2nc(-c3cc4cccc(O)c4oc3=O)[nH]c2c1 -61.9%, NS(=O)(=O)c1ccc(NC(=O)CN2C(=O)COc3ccc(Cl)cc32)cc1 -9.32%, CCc1ccccc1Nc1nn2c(=O)c3ccc(C(=O)NCc4ccccc4OC)cc3nc2s1 -25.5%, O=C1OC(CN2CCOCC2)CN1/N=C/c1ccc([N+](=O)[O-])o1 (stereo unspecified) -3.63%, CCOC(=O)c1c(C)[nH]c(C)c1S(=O)(=O)N1CCCC(C(=O)Nc2ccc(C)cn2)C1 (stereo unspecified) -2.66%, COc1ccccc1Cn1cc(C(=O)c2ccc(C)cc2)c(=O)c2cc(C)ccc21 -0.327%, Cc1cnn(C)c1C(=O)Nc1cc(Nc2ccc3c(C=Cc4ccccn4)n[nH]c3c2)ccc1F -87.1%, CCN(c1ccccc1)c1ccc2cc(S(=O)(=O)N3CCCC3)ccc2n1 0.558%, Cc1ccc(-n2nc(CO)c(C(=O)NCCCc3ccccc3)n2)cc1C 2.46%
